Results: the supplement of paper PMC10723795
Structures can show the parent of a compound that is named as a salt. Some of the results follow.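 Rule for the calls: active = more than 2 SD below the DMSO mean: under 0.85 at 10 µM or 0.885 at 1 µM; inactive = the rest.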 Most values come without repeats; read them as rough.

System: RPE1
Test: nucleolar normality score relative to DMSO (fraction of DMSO control); RPE1 is a non-cancer human cell line; higher = more normal nucleoli (less nucleolar stress)
Details: 24 h
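Note: fixed cells immunolabelled for nucleolin and UBF, 40 image fields per well in 384-well plates, per-cell score = nucleolin nucleolar/nucleoplasm intensity ratio divided by the matching UBF ratio.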

Row | SMILES | nucleolar normality score (1 µM) | nucleolar normality score (10 µM)
1 | CCCc1cc(C)[nH]c(=O)c1CNC(=O)c1cc(-c2ccc(N3CCN(C(C)C)CC3)nc2)cc2c1cnn2C(C)C | inactive: 0.964 | inactive: 0.993
2 | COc1c(C)c(C(=O)c2ccc(N)c(C(=O)O)c2)n2ccccc12 | inactive: 1.08 | inactive: 1.08
3 | CN[C@@H](C)C(=O)N[C@H](C(=O)N1CCC[C@H]1c1nc(C(=O)c2ccc(F)cc2)cs1)C1CCCCC1 | inactive: 1.05 | inactive: 1.05
4 | O=C1C[C@@H](c2ccccc2)Oc2cc(O)cc(O)c21 [Pinocembrin] | inactive: 1.07 | inactive: 1.06
5 | CC(C)C[C@H](NP(=O)(O)O[C@@H]1O[C@@H](C)[C@H](O)[C@@H](O)[C@H]1O)C(=O)N[C@@H](Cc1c[nH]c2ccccc12)C(=O)O [Phosphoramidon Disodium Salt] | inactive: 0.905 | inactive: 0.994
6 | COc1ccc(-c2ccc3c(N4CCOC[C@@H]4C)nc(N4CCOC[C@@H]4C)nc3n2)cc1CO | inactive: 1.05 | inactive: 1.04
7 | COC(=O)c1ccc2c(c1)nc(NC(=O)c1ccccc1)n2CCCc1ccccc1 | inactive: 0.965 | inactive: 1
8 | C[C@@]1(C(=O)Nc2ccc(F)nc2)CCCN1c1nc(Nc2cc(C3CC3)n[nH]2)c2cccn2n1 | inactive: 0.992 | inactive: 1.03
9 | N#Cc1ccc(C(c2ccc(C#N)cc2)n2cncn2)cc1 [Letrozole] | inactive: 1.03 | inactive: 1.06
10 | O=C(Nc1cccc(C(F)(F)F)c1)c1cccc2cc(Oc3cc(CO)ncn3)ccc12 | inactive: 1.01 | inactive: 1.07
11 | CN(CC(=O)N(Cc1ccc(C2CCCCC2)cc1)c1ccc(C(=O)O)c(O)c1)S(=O)(=O)c1c(F)c(F)c(F)c(F)c1F | inactive: 1.02 | inactive: 1.02
12 | CC(=O)Nc1ccc(C(=O)Nc2ccccc2N)cc1 [Tacedinaline (CI994)] | inactive: 1.02 | inactive: 0.878
13 | COc1cc2c(Nc3ccc(NC(=O)c4ccccc4)cc3)ncnc2cc1OCCCN1CCOCC1 | inactive: 0.995 | inactive: 1.01
14 | O=c1[nH]nc2c3c(cccc13)N=C(CN1Cc3ccccc3C1)N2 | inactive: 1.01 | inactive: 1.05
15 | O=C(O)[C@]1(Cc2cccc(Nc3nccs3)n2)CC[C@@H](Oc2cccc(Cl)c2F)CC1 | inactive: 1 | inactive: 1.05
16 | C#Cc1cccc(Nc2ncnc3cc(OC)c(OCCCCCCC(=O)NO)cc23)c1 | inactive: 1.06 | active: 0.514
17 | COc1cccc2c1c(O)c(C(=O)N(C)c1ccc(C(F)(F)F)cc1)c(=O)n2C [Tasquinimod] | inactive: 0.985 | inactive: 0.985
18 | N=C(N)NC(=N)NCCc1ccccc1 [Phenformin HCl] | inactive: 1.02 | inactive: 0.898
19 | O=c1[nH]c(C2CCCN2)nc2c1oc1ccc(Cl)cc12 (stereo not drawn) | inactive: 1.06 | inactive: 1.11
20 | C[C@@H](Oc1ccc2[nH]nc(/C=C/c3cnn(CCO)c3)c2c1)c1c(Cl)cncc1Cl | inactive: 0.957 | inactive: 0.941

Row | SMILES | nucleolar normality score (1 µM) | nucleolar normality score (10 µM)
21 | CN(C)C/C=C/C(=O)Nc1ccc(C(=O)Nc2cccc(Nc3ncc(Cl)c(-c4c[nH]c5ccccc45)n3)c2)cc1 | active: 0.671 | active: 0.2
22 | O=C1NC(=O)C(c2cnc3ccccn23)=C1c1cn2c3c(cc(F)cc13)CN(C(=O)N1CCCCC1)CC2 | active: 0.784 | active: 0.702
23 | COc1cc2ncnc(Sc3nnc(C)s3)c2cc1OC | inactive: 0.972 | inactive: 1.04
24 | N=C1CCCN1Cc1[nH]c(=O)[nH]c(=O)c1Cl [Tipiracil hydrochloride] | inactive: 1.01 | inactive: 0.932
25 | C[C@@H]1Cc2c([nH]c3ccccc23)[C@@H](c2c(F)cc(/C=C/C(=O)O)cc2F)N1CC(C)(C)F | inactive: 0.981 | inactive: 1.01
26 | CC(=O)Nc1cccc(-n2c(=O)n(C3CC3)c(=O)c3c(Nc4ccc(I)cc4F)n(C)c(=O)c(C)c32)c1 | inactive: 0.982 | active: 0.849
27 | CC(C)Oc1ccc(-c2c[nH]cc2CN(C)CCN)cc1 | inactive: 1.08 | inactive: 1.04
28 | C[C@@H](C(=O)Nc1ccc(Cl)cc1)C1CCC(c2ccnc3ccc(F)cc23)CC1 (stereo partly drawn) | inactive: 1.06 | inactive: 1.06
29 | CC(C)(C)c1cnc(CSc2cnc(NC(=O)C3CCNCC3)s2)o1 | active: 0.242 | active: 0.209
30 | COc1cc(Br)c(Nc2nc(-c3c(C)nc4ncccn34)cs2)c(Br)c1 | inactive: 1.02 | inactive: 1.06
31 | CC(=Cc1ccc(C(=O)O)cc1)c1ccc2c(c1)C(C)(C)CCC2(C)C [TTNPB (Arotinoid Acid)] | inactive: 1.07 | inactive: 1.1
32 | Cc1ccc(C(=O)c2ccc(CC(=O)O)n2C)cc1 [Tolmetin] | inactive: 1.01 | inactive: 0.94
33 | COC(=O)Nc1nc2cc(C(=O)c3cccs3)ccc2[nH]1 [Nocodazole] | inactive: 0.928 | inactive: 0.86
34 | N#CN=C(NCCCCCCOc1ccc(Cl)cc1)Nc1ccncc1 | inactive: 1.03 | inactive: 1.06
35 | CCOC(=O)c1ccc(N2NC(=O)C(=Cc3ccc([N+](=O)[O-])o3)C2=O)cc1 | inactive: 1.02 | inactive: 1.06
36 | CCNC(=O)c1noc(-c2cc(Cl)c(O)cc2O)c1-c1ccc(OC)cc1 | inactive: 0.898 | active: 0.468
37 | CCC1=C[C@@H]2CN(C1)Cc1c([nH]c3ccccc13)[C@@](C(=O)OC)(c1cc3c(cc1OC)N(C)[C@H]1[C@@](O)(C(=O)OC)[C@H](OC(C)=O)[C@]4(CC)C=CCN5CC[C@]31[C@@H]54)C2 [Vinorelbine Tartrate] | inactive: 0.994 | inactive: 0.912
38 | C=CC(=O)Nc1cccc(Nc2nc(Nc3ccc(NC4CN(CCF)C4)cc3OC)ncc2C(F)(F)F)c1 | inactive: 0.966 | inactive: 1.01
39 | c1ccc2c(Oc3nc(Nc4ccc(N5CCOCC5)cc4)c4ncn(C5CCCCC5)c4n3)cccc2c1 [Purmorphamine] | inactive: 0.98 | inactive: 1.02
